Source: article PMC4336329 (PLoS ONE, 2015)
About 14,000 (4.5%) of roughly 310,000 compounds showed an effect of 50% or more. The effect is printed as a negative number. The list shows a part of the results.

biological target: human ether-à-go-go-related gene (hERG) potassium channel (human, UniProt Q12809); assay: primary screen, population patch clamp on CHO cells stably expressing hERG
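Note: peak tail current of the secondary pulse compared with the same well before compound.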

human ether-à-go-go-related gene (hERG) potassium channel, sequence (Q12809 whole entry, looked up): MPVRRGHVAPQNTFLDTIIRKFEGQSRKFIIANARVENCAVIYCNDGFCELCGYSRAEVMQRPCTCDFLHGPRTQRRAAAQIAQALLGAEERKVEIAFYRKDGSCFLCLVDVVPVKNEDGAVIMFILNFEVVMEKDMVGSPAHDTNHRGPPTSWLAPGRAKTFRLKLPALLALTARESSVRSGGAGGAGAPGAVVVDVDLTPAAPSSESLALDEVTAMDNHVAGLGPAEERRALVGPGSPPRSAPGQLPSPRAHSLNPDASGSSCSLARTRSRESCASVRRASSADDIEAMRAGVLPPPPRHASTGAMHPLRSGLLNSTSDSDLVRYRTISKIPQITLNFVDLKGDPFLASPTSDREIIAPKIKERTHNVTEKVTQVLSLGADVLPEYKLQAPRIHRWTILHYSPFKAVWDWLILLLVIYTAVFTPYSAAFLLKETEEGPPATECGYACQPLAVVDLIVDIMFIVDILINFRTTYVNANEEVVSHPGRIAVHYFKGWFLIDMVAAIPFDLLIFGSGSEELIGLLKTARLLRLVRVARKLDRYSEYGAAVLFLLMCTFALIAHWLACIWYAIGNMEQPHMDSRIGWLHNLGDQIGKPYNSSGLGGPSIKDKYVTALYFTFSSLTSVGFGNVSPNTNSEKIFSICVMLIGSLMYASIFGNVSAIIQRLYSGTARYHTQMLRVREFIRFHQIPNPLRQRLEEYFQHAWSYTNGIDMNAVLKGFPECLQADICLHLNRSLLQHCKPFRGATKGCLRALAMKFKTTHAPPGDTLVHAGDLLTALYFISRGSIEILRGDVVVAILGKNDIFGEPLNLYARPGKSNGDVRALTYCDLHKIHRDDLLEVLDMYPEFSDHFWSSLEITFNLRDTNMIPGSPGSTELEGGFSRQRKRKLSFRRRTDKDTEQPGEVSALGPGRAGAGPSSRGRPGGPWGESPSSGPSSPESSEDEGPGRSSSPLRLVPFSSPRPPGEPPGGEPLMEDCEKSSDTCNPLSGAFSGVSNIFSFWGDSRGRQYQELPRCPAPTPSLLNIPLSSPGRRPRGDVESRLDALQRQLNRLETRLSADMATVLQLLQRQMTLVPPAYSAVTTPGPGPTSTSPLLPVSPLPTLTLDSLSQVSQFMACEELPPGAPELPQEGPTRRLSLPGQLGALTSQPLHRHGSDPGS

Row | Structure (SMILES) | hERG current change (%, negative = inhibition) at 10uM [%]
1 | O=C(NCCCNC(=O)c1cccnc1)c1ccc(Cl)cc1 | -23.5
2 | O=c1[nH]c2cc(Cl)ccc2n(CCNc2ncc(C(F)(F)F)cc2Cl)c1=O | 3.01
3 | COc1cccc(C2c3[nH]c4ccccc4c3CCN2Cc2cccc(C)n2)c1 (stereo not drawn) | -26.6
4 | Oc1oc(-c2ccccc2)nc1C=NCc1ccncc1 | -7.6
5 | Cc1cccc(OC(C)C(=O)Nc2ccccc2C(=O)N2CCCCC2)c1 (stereo not drawn) | -0.472
6 | CC(C)c1ccc[n+](-c2nc([O-])sc2C=O)c1 | 14.7
7 | CCOc1ccc(-c2nc(CN3CCCC(C(=O)N4CCOCC4)C3)c(C)o2)cc1 (stereo not drawn) | -26.5
8 | CCOC(=O)c1cc(CC)sc1NC(=O)CN1CCN(C(=O)c2ccco2)CC1 | -67.2
9 | CCn1nc(NS(=O)(=O)c2ccc(NC(C)=O)cc2)c2cc3ccc(C)cc3nc21 | 4.59
10 | CCc1ccc(C(=O)N/N=C/c2ccncc2)s1 | 1.7
11 | COc1cc(SC)ccc1C(=O)Nc1ncc(Cl)cc1Cl | 3.04
12 | O=C(NCC1CCCN1S(=O)(=O)c1cccs1)c1ccccc1 (stereo not drawn) | 16.5
13 | O=C(Nc1cccnc1)OCc1ccccc1 | 5.19
14 | CC1Cc2ccccc2N1C(=O)c1ccc(N2CCCCC2)c([N+](=O)[O-])c1 (stereo not drawn) | 2.86
15 | Cc1ccccc1C1NC(c2ccccc2C)C(C)C(=O)C1C (stereo not drawn) | 15.8
16 | CC1CCCN(C(=O)c2ccc(Cl)c(S(=O)(=O)N3CCCCCC3)c2)C1 (stereo not drawn) | -76.3
17 | O=S(=O)(Nc1ccccc1F)c1ccc2nsnc2c1 | -19.9
18 | Cc1ccc(C(=O)NC(=S)NCc2cccnc2)cc1C | -33
19 | Cc1ccc(NC(=O)c2sc3ncnc(N4CCN(c5ccccn5)CC4)c3c2C)c(C)c1 | -48.4
20 | O=c1[nH]c(=O)n(Cc2ccco2)c2c1C(C(F)(F)F)(C(F)(F)F)N=C(c1ccc(F)cc1)N2 | 1.16
21 | O=C1C2CCCN2C(c2ccc(Cl)cc2)N1c1nccs1 (stereo not drawn) | -0.11
22 | Cc1ccc(N(Cc2ccc([N+](=O)[O-])cc2)C(=O)c2ccco2)cc1C | -24.1
23 | COc1ccccc1N1CCN(C(c2ccc(C)cc2)c2nnnn2C(C)C)CC1 (stereo not drawn) | -5.61

Row | Structure (SMILES) | hERG current change (%, negative = inhibition) at 10uM [%]
24 | CCCc1c(C(=O)OCC)sc(N)c1C#N | 20.9
25 | Cc1ccc(S(=O)(=O)NCCC(=O)NCCN2CCCCCC2)cc1 | 5.11
26 | COc1cc(C(c2c(O)c3ccccc3oc2=O)c2c(C)n(C)n(-c3ccccc3)c2=O)ccc1O (stereo not drawn) | 24
27 | CCOCCCNS(=O)(=O)c1ccc(NC(=O)c2ccc([N+](=O)[O-])cc2Cl)cc1 | -22.3
28 | CC1(C)O[C@@H]2[C@@H](CO[C@@]3(COS(N)(=O)=O)OC(C)(C)O[C@@H]23)O1 | 13.9
29 | CCCc1cc(-c2n[nH]c(=S)n2Cc2ccccc2)cs1 | -15
30 | COc1ccc(CNC(=O)C2CCN(S(=O)(=O)c3c(C)n[nH]c3C)CC2)cc1 | 17.5
31 | CC(C)CCn1c(N2CCCC2)nc2c1c(=O)[nH]c(=O)n2C | 6.71
32 | Nc1c(C(=O)c2cccs2)oc2ccccc12 | -0.949
33 | COc1ccc(NC(=O)c2cnn3c(C(F)(F)F)cc(-c4ccco4)nc23)cc1OC | 12.5
34 | O=c1cc(O)n(-c2ccccc2)c(=S)[nH]1 | 24
35 | CCCC(=O)NC(=S)c1c(C)n(C)n(-c2ccccc2)c1=O | 25.8
36 | CCOC(=O)c1c(CC(C)C)csc1NC(=O)c1ccccc1C(=O)O | -2.93
37 | Nc1cc(N)nc(SCC(=O)N2CCCCC2)n1 | 4.86
38 | CC(Oc1cc2oc(=O)c3c(c2cc1Cl)CCC3)C(=O)NCC1CCC(C(=O)O)CC1 (stereo not drawn) | 8.54
39 | O=C(CCc1ccc(F)c(F)c1)NC1CCCN(Cc2ccc(Cl)cc2)C1 (stereo not drawn) | -66
40 | CCOC(=O)C1=C(CSc2nnnn2C)N(C)C(=O)NC1c1ccccc1 (stereo not drawn) | 5.85
41 | COC(=O)C1=C(C)C(c2ccc(OC)cc2)NC(=O)N1 (stereo not drawn) | 15.3
42 | O=C(N/N=C/c1ccco1)c1ccc(NC(=O)C2CC2)cc1 | 18.2
43 | O=C(CS(=O)(=O)c1ccc(F)cc1)N1CCOCC1 | 12
44 | C=CCNc1nc(SCC=C)nc2ccsc12 | -26.4
45 | CC(=O)Nc1c(C(=O)O)oc2ccc(Cl)cc12 | 2.23
